The whole screen tested about 310,000 compounds, of which about 2,200 (0.71%) showed an effect of 50% or more. Effects have a minus sign here. This is one part of the list.
Target: human ether-à-go-go-related gene (hERG) potassium channel (human, UniProt Q12809)
Assay: primary screen, population patch clamp on CHO cells stably expressing hERG

human ether-à-go-go-related gene (hERG) potassium channel, sequence (Q12809 whole entry, looked up): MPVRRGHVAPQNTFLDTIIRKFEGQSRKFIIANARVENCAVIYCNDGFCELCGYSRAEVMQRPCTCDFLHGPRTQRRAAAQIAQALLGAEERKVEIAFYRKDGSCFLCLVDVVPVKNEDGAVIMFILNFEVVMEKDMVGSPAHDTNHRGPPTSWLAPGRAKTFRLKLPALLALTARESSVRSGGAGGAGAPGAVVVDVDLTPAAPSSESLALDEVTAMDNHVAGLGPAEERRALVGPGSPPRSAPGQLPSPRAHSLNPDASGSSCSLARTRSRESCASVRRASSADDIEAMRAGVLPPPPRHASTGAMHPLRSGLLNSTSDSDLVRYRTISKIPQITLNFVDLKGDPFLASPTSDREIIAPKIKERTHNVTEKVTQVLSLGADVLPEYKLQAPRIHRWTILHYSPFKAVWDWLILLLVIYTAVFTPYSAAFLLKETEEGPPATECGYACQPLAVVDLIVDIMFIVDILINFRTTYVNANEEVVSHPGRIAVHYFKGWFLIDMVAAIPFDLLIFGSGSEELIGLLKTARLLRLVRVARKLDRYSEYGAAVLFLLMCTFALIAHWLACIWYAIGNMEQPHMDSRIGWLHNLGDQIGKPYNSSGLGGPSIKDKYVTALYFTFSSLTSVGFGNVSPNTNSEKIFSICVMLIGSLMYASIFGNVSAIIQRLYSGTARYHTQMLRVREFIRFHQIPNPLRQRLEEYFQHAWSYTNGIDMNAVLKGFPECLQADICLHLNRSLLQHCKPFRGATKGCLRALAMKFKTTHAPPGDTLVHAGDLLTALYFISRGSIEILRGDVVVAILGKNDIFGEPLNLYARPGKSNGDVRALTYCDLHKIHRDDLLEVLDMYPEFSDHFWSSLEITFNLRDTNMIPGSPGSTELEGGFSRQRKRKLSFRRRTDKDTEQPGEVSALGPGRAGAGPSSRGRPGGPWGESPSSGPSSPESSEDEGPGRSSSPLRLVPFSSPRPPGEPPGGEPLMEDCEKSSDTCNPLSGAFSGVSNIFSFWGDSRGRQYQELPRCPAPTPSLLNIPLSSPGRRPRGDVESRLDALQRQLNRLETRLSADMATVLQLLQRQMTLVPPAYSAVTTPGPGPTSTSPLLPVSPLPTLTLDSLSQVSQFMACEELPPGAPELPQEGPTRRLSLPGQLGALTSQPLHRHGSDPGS

Q: How did the “hERG current change (%, negative = inhibition) at 1uM” value turn out when Cc1ccc(NC(=O)/C=C/c2cccc(C(F)(F)F)c2)cc1 was run?
A: 15.8%

Q: For CN1/C(=C\C(=O)C[n+]2ccc(C(=O)c3ccccc3)cc2)C(C)(C)c2ccccc21.[Cl-], which “hERG current change (%, negative = inhibition) at 1uM” value is on record?
A: 8.74%

Q: CCOc1ccccc1NC(=O)CSc1nc(=O)n(CCCN2CCOCC2)c2c1CCC2 was tested. Which “hERG current change (%, negative = inhibition) at 1uM” value did it give?
A: 5.41%

Q: Cc1nc(N2CCN(c3ccccn3)CC2)c2c(C)c(C(=O)Nc3ccc(Br)cc3C)sc2n1 was tested. Which “hERG current change (%, negative = inhibition) at 1uM” value did it give?
A: 24.1%

Q: For CCn1c(N2CCN(C(=O)C34CC5CC(CC(C5)C3)C4)CC2)nc2ccccc21, which “hERG current change (%, negative = inhibition) at 1uM” value is on record?
A: 11.5%

Q: How did the “hERG current change (%, negative = inhibition) at 1uM” value turn out when Cc1cccc2cc(CN(CC3CCCO3)C(=O)NC3CCCCC3)c(=O)[nH]c12 (stereo not shown) was run?
A: 4.52%

Q: CC(C)CCCC(C)NC(=O)c1cc(S(=O)(=O)N2CCCCC2)ccc1N1CCOCC1 (stereo not shown) was tested. Which “hERG current change (%, negative = inhibition) at 1uM” value did it give?
A: 10.7%

Q: Which “hERG current change (%, negative = inhibition) at 1uM” value does the source give for COc1ccccc1C(=O)NCCSCc1ccccc1Cl here?
A: 8.35%

Q: For CCn1c(=O)n(CC)c2cc(N3CCCC3)c(NC(=O)c3ccc(C)cc3)cc21, which “hERG current change (%, negative = inhibition) at 1uM” value is on record?
A: 15.1%

Q: How did the “hERG current change (%, negative = inhibition) at 1uM” value turn out when Cc1ccc(C)c(N2N=C(C(=O)N(CC(C)C)c3c(N)n(Cc4ccccc4)c(=O)[nH]c3=O)CCC2=O)c1 was run?
A: 13.4%

Q: With COC(=O)CSc1nc2cc(C)ccc2cc1C#N as the compound, how does the “hERG current change (%, negative = inhibition) at 1uM” value read?
A: 21.4%

Q: Which “hERG current change (%, negative = inhibition) at 1uM” value does the source give for Cc1ccc(C)c(NC(=O)CCC(=O)N/N=C/c2cc([N+](=O)[O-])ccc2O)c1 here?
A: 5.84%

Q: With O=C(O)c1ccc(-n2cccn2)nc1 as the compound, how does the “hERG current change (%, negative = inhibition) at 1uM” value read?
A: 8.72%

Q: For CCN1C(=O)/C(=C/C=C2/Sc3ccccc3N2CCO)SC1=S, which “hERG current change (%, negative = inhibition) at 1uM” value is on record?
A: 5.47%

Q: CCc1ccc(-c2nn(Cc3ccccc3)cc2/C=C/C(=O)O)cc1 was tested. Which “hERG current change (%, negative = inhibition) at 1uM” value did it give?
A: 9.47%

Q: How did the “hERG current change (%, negative = inhibition) at 1uM” value turn out when CCN1CCN(C(=O)c2ccccc2NC(=O)c2ccc(Cl)cc2)CC1 was run?
A: -8.95%

Q: Which “hERG current change (%, negative = inhibition) at 1uM” value does the source give for COc1cccc(NC(=O)COc2c(F)c(F)c(C(F)(F)F)c(F)c2F)c1 here?
A: 2.07%

Q: For Cc1ccc(NC(=O)N2CCCc3ccccc32)cc1C, which “hERG current change (%, negative = inhibition) at 1uM” value is on record?
A: 6.47%

Q: For Cc1cc(C)cc(-n2c(C)cc(/C=N/NC(=O)c3cccc([N+](=O)[O-])c3C)c2C)c1, which “hERG current change (%, negative = inhibition) at 1uM” value is on record?
A: 16.9%

Q: For C/C(=N\Nc1ccc(C#N)cc1[N+](=O)[O-])c1ccc(C)o1, which “hERG current change (%, negative = inhibition) at 1uM” value is on record?
A: -2.38%

Q: How did the “hERG current change (%, negative = inhibition) at 1uM” value turn out when COc1ccc(-n2c(N)c(C(=O)NCc3ccco3)c3nc4ccccc4nc32)c(OC)c1 was run?
A: 9.95%

Q: COc1cccc(C(=O)Nc2sc3c(c2C(=O)O)CCCC3)c1 was tested. Which “hERG current change (%, negative = inhibition) at 1uM” value did it give?
A: 17.9%

Q: For Cc1ccc2cc3cc(C(=O)NCCN4CCOCC4)oc3nc2c1, which “hERG current change (%, negative = inhibition) at 1uM” value is on record?
A: -1.2%

Q: With CC(Sc1ncnc2sc(-c3ccccc3)cc12)C(N)=O (stereo not shown) as the compound, how does the “hERG current change (%, negative = inhibition) at 1uM” value read?
A: 15.2%

Q: CN(C)S(=O)(=O)c1cccc(NC(=O)c2ccncc2)c1 was tested. Which “hERG current change (%, negative = inhibition) at 1uM” value did it give?
A: 8.07%

Q: For CCOC(=O)c1c(CSc2cccs2)n(C)c2cc(Br)c(O)c(CN(C)C)c12.Cl, which “hERG current change (%, negative = inhibition) at 1uM” value is on record?
A: -13.8%

Q: Which “hERG current change (%, negative = inhibition) at 1uM” value does the source give for COc1ccc(OCCn2c(N)nc3ccccc32)cc1 here?
A: -30%

Q: How did the “hERG current change (%, negative = inhibition) at 1uM” value turn out when O=C(CSc1nnc(NC(=O)C2CC(=O)N(c3ccc(F)cc3)C2)s1)NCc1ccco1 (stereo not shown) was run?
A: 11.9%

Q: CCCC(C)C(=O)Nc1cccc(NC(C)=O)c1 (stereo not shown) was tested. Which “hERG current change (%, negative = inhibition) at 1uM” value did it give?
A: 4.54%

Q: How did the “hERG current change (%, negative = inhibition) at 1uM” value turn out when O=C(CCc1ccccc1)N=C1SC2CS(=O)(=O)CC2N1c1ccccc1 (stereo not shown) was run?
A: 14.9%

Q: How did the “hERG current change (%, negative = inhibition) at 1uM” value turn out when CCOC(=O)C1C(=O)NC(SCC(=O)OC)=C(C#N)C1c1ccccc1OCC (stereo not shown) was run?
A: -1.84%

Q: How did the “hERG current change (%, negative = inhibition) at 1uM” value turn out when COc1ccc(S(=O)(=O)N2CCOCC2)cc1NC(=O)C1CCCN1C(=O)c1cccs1 (stereo not shown) was run?
A: 6.39%

Q: Which “hERG current change (%, negative = inhibition) at 1uM” value does the source give for Cc1ccc(OCC(=O)OCC(=O)N2c3ccccc3CC2C)cc1C (stereo not shown) here?
A: 7.81%

Q: Which “hERG current change (%, negative = inhibition) at 1uM” value does the source give for COC(=O)C(Cc1ccccc1)NC(=O)c1ccc(NS(=O)(=O)c2ccc3[nH]c(=O)[nH]c3c2)cc1 (stereo not shown) here?
A: 14.2%

Q: With CCOc1ccc(CCNC(=O)C2CCCN2C(=O)OCc2ccccc2)cc1OCC (stereo not shown) as the compound, how does the “hERG current change (%, negative = inhibition) at 1uM” value read?
A: 19.1%

Q: How did the “hERG current change (%, negative = inhibition) at 1uM” value turn out when CC1(C)C=Cc2cc(-c3coc4cc(O)cc(O)c4c3=O)cc(O)c2O1 was run?
A: 1.85%

Q: Which “hERG current change (%, negative = inhibition) at 1uM” value does the source give for O=C(Nc1ccncc1)c1cc(-c2ccccn2)nc2ccccc12 here?
A: 5.97%

Q: For CCOc1cccc(Nc2ccc([N+](=O)[O-])cn2)c1, which “hERG current change (%, negative = inhibition) at 1uM” value is on record?
A: 14.8%

Q: For COc1ccccc1S(=O)(=O)Cc1ccc(C(=O)NCCN2CCCCCC2)o1, which “hERG current change (%, negative = inhibition) at 1uM” value is on record?
A: 9.15%

Q: Cn1ncc(C(=O)N=S(C)(=O)c2ccccc2)c1[N+](=O)[O-] (stereo not shown) was tested. Which “hERG current change (%, negative = inhibition) at 1uM” value did it give?
A: 13.3%

Q: Which “hERG current change (%, negative = inhibition) at 1uM” value does the source give for Cc1ccccc1OCCNC(=O)CSc1ccc(C(F)(F)F)cc1[N+](=O)[O-] here?
A: 12.6%

Q: Which “hERG current change (%, negative = inhibition) at 1uM” value does the source give for COc1ccccc1C(CNC(=O)c1ccc(OCc2c(C)noc2C)cc1)N1CCCC1 (stereo not shown) here?
A: 6.37%

Q: C[C@H](NCCc1ccc(O)cc1)[C@H](O)c1ccc(O)cc1.Cl was tested. Which “hERG current change (%, negative = inhibition) at 1uM” value did it give?
A: 6.91%
